Laboratory results reported in PubChem BioAssay (Tox21).
Where “and” joins values, the source holds several entries; their conditions need not be identical. Identical values can stand only once. Where a structure was tested more than once in an assay, its records may differ in their call. Calls of active or inactive are those of the source. Calls come from the whole dose curve; as a rule, active = well fitted activation curve with a large enough effect in the signal ratio in the repeat runs (not every such curve was filed as active); inconclusive = weak or mixed curves, or effect the other way; inactive = no such curve, though single readings can be large or run the other way; the % refers to the signal ratio.
% is set by controls: 0 for no effect and ±100 for the full control effect; potency is the fitted concentration of half-maximal effect; tags give direction and shape of the fitted curve or compound fluorescence and quenching.

What follows are compounds tested against Glucocorticoid receptor (Homo sapiens) (UniProt P04150) (assay: qHTS assay to identify small molecule agonists of the glucocorticoid receptor (GR) signaling pathway (AID 720691)). Conditions: GR-bla HeLa, beta-lactamase reporter ratio, 18 h; activation: at 62.4 µM (top of the series) unless noted.
Sequence of UniProt P04150 (P04150 whole entry, looked up): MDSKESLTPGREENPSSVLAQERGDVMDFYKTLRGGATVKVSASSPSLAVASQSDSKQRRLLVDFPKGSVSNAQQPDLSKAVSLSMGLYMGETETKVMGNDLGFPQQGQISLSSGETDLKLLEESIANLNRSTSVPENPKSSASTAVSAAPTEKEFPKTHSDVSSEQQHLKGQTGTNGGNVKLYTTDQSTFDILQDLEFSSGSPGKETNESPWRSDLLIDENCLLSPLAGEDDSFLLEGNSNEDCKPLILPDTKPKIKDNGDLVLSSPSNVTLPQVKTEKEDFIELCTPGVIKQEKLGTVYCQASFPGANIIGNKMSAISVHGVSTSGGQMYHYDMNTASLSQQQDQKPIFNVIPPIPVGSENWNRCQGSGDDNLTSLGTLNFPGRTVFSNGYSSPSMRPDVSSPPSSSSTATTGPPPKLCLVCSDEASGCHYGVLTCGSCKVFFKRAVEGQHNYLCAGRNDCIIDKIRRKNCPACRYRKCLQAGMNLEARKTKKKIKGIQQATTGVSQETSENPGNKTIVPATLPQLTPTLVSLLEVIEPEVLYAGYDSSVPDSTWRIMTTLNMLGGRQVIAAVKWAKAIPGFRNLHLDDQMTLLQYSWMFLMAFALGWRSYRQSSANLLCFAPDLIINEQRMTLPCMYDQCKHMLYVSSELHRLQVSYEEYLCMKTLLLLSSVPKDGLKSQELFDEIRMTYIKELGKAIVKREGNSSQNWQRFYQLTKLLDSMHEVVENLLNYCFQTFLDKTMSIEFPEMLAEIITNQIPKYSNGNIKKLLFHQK
Description: U.S. Tox21 Program National Center for Advancing Translational Sciences [NCATS] NIH Chemical Genomics Center [NCGC] U.S. Environmental Protection Agency [EPA] National Institutes of Environmental Health Sciences [NIEHS] National Toxicology Program [NTP] U.S. Food and Drug Administration [FDA] Tox21 Assay Overview: The Glucocorticoid receptor (GR) is one of the members of the nuclear receptor family of ligand-dependent transcription factors. GR plays a critical role in carbohydrate, protein and lipid metabolisms and programmed cell death. CellSensor GR-bla HeLa cell line (Invitrogen) contains a beta-lactamase reporter gene under the control of the glucocorticoid response element stably integrated into HeLa cells, a cervical cancer cell line that expresses glucocorticoid receptor. The activation of the reporter gene under culture conditions can be detected by fluorescence intensity. This cell line has been used to screen the Tox21 10K compound library and to identify the compounds that activate the GR signaling.
Tox21 Assay Protocol Summary: The GR-bla HeLa cells were dispensed at 1500 cells/6 ul/well in 1536-well black wall/clear bottom plates using a Multidrop Combi (ThermoFisher Scientific, Waltham, MA) dispenser. After the assay plates were incubated at a 37 C/5% CO2 incubator for 4 hours, 23 nL of compounds dissolved in DMSO, positive controls or DMSO only was transferred to the assay plate by a pintool station (Kalypsys, San Diego, CA). The plates were incubated at 37 C for 18 hours. After 1 uL of LiveBLAzerTM B/G FRET substrate was added using a Flying Reagent Dispenser (Aurora Discovery, San Diego, CA), the plates were incubated at room temperature for 2 hours, and fluorescence intensity was measured by an Envision plate reader (PerkinElmer, Shelton, CT).
With `C[C@H]1C[C@@H]2[C@H]([C@@H](O)C[C@@]3(C)[C@H]2CC[C@]3(O)C(=O)COC(=O)CCC(=O)O)[C@@]2(C)C=CC(=O)C=C12` the Potency was active: 0.0268 µM [inconclusive]. For `O=[N+]([O-])c1ccc(Oc2ccc(N=C=S)cc2)cc1`, the Potency was inconclusive: 16.9 µM. In the case of `CCN1\C(=C/C=C/C=C/c2sc3ccccc3[n+]2CC)Sc2ccccc21`, the Potency is reported as inconclusive: 23.9 µM [cytotoxic, partial curve]. For `C=C(C)C(=O)OC`, the Potency was “inactive”. In the case of `CC(=O)O[C@]1(C(C)=O)CC[C@H]2[C@@H]3CCC4=CC(=O)CC[C@]4(C)[C@@]3(F)[C@@H](O)C[C@@]21C`, the Potency is reported as active: 0.0379 µM. In the case of `CCOc1cc(CC(=O)N[C@@H](CC(C)C)c2ccccc2N2CCCCC2)ccc1C(=O)O`, the Potency is reported as active: 8.11 µM. `COC(=O)CCCCC(=O)O` was tested, and the Potency was “inactive”. In the case of `C=C[C@]1(C)C[C@@H](OC(=O)CSCCN(CC)CC)[C@]2(C)[C@H](C)CC[C@]3(CCC(=O)[C@H]32)[C@@H](C)[C@@H]1O`, the activation is reported as inconclusive: -0.579%. In the case of `CC(C)[C@@H](N)C(=O)O`, the Potency is reported as “inactive”. In the case of `OCC(S)CS` (stereo not given), the Potency is reported as inconclusive: 26.8 µM [falling, single point]. In the case of `C=C(C)C(=O)OCCCCCCCCCCCCCCCCCC`, the Potency is reported as “inactive”. For `COC(=O)C[C@](O)(CCCC(C)(C)O)C(=O)O[C@@H]1C(OC)=CC23CCCN2CCc2cc4c(cc2[C@H]13)OCO4` (stereo not given in full), the Potency was inconclusive: 95.2 nM [activator, single point] and inconclusive: 601 nM [inhibitor, full curve]. With `C#C[C@]1(O)CC[C@H]2[C@@H]3CCC4=CCCC[C@@H]4[C@H]3C(=C)C[C@@]21CC` the Potency was inconclusive: 26.8 µM [cytotoxic, single point]. With `C[C@H](O)C(=O)Nc1c(I)c(C(=O)NC(CO)CO)c(I)c(C(=O)NC(CO)CO)c1I` the Potency was active: 6.44 µM. For `CC(C)CCCCCCN`, the Potency was “inactive”. With `CCOC(=O)[C@H](CCc1ccccc1)N[C@@H](C)C(=O)N1[C@H](C(=O)O)C[C@@H]2CCC[C@@H]21` the Potency was “inactive”. In the case of `O=C(O)C(=O)Cc1ccccc1`, the Potency is reported as inconclusive: 11 µM [activator, partial curve]. In the case of `N[C@@H](C(=O)N[C@@H]1C(=O)N2C(C(=O)O)=C(Cl)CC[C@H]12)c1ccccc1`, the Potency is reported as active: 21.3 µM. With `CCCOc1cc(N)ccc1C(=O)OCCN(CC)CC` the Potency was inconclusive: 1.02 µM. `Clc1ccc(COC(Cn2ccnc2)c2ccc(Cl)cc2Cl)c(Cl)c1` (stereo not given) was tested, and the Potency was inconclusive: 11.5 µM. For `O=C(OCc1ccccc1)C(=O)OCc1ccccc1`, the Potency was “inactive”. With `CCOC(=O)C1=C(COCCN)NC(C)=C(C(=O)OC)C1c1ccccc1Cl` (stereo not given) the activation was inconclusive: 3.09% and the Potency was inconclusive: 10.7 µM [fluorescent, single point]. In the case of `CC(=O)OCC(=O)[C@@]12OC3(CCCC3)O[C@@H]1C[C@H]1[C@@H]3CCC4=CC(=O)C=C[C@]4(C)[C@@]3(F)[C@@H](O)C[C@@]12C`, the Potency is reported as active: 0.019 µM. In the case of `CC[C@@]1(O)C(=O)OCc2c1cc1n(c2=O)Cc2cc3c([N+](=O)[O-])cccc3nc2-1`, the activation is reported as active: 5.3% [inconclusive]. With `COC(F)(F)C(Cl)Cl` the Potency was “inactive”. For `CC(C)CCC[C@@H](C)[C@H]1CC[C@H]2[C@@H]3CC[C@@H]4C[C@H](O)CC[C@]4(C)[C@H]3CC[C@]12C`, the Potency was “inactive”. In the case of `O=C1c2c(O)cccc2[C@H]([C@@H]2O[C@H](CO)[C@@H](O)[C@H](O)[C@H]2O)c2cc(CO)cc(O)c21`, the activation is reported as active: 14.2% [inconclusive]. For `CC[C@@H](C(=O)[C@@H](C)[C@@H](O)[C@H](C)CCc1ccc(C)c(O)c1C(=O)O)[C@H]1O[C@](CC)([C@H]2CC[C@](O)(CC)[C@H](C)O2)C[C@@H]1C`, the Potency was active: 16.9 µM [inconclusive]. In the case of `CCCCC[C@H](O)/C=C/[C@H]1[C@H](O)CC(=O)[C@@H]1CCCCCCC(=O)O`, the activation is reported as inconclusive: 5.46% [phenotype inactive] [at 29.2 µM]. In the case of `CNCCC=C1c2ccccc2CCc2ccccc21`, the activation is reported as inconclusive: -10.9%. `O=C(c1ccccc1O)c1ccccc1O` was tested, and the activation was inconclusive: -10.3%. For `CCOC(=O)OC(C)OC1=C(C(=O)Nc2ccccn2)N(C)S(=O)(=O)c2ccccc21` (stereo not given), the Potency was active: 5.35 µM. In the case of `O=C[C@H](O)[C@@H](O)[C@@H](O)[C@H](O)CO`, the Potency is reported as “inactive”. For `CN(C)CCCSc1ccccc1NC(=O)/C=C/c1ccccc1`, the Potency was “inactive”. For `N#CC(c1ccc(Cl)cc1)c1c(Cl)cc(-n2ncc(=O)[nH]c2=O)cc1Cl` (stereo not given), the Potency was inconclusive: 21.3 µM [rising, partial curve, poor fit]. With `COC1=C(C(=O)O)N2C(=O)[C@@H](NC(=O)[C@H](N)C3=CCC=CC3)[C@H]2SC1` the Potency was “inactive”. In the case of `CC[C@H](C)C(=O)O[C@H]1CCC=C2C=C[C@H](C)[C@H](CC[C@@H]3C[C@@H](O)CC(=O)O3)[C@H]21`, the activation is reported as inconclusive: -12.5% [phenotype inactive]. For `CN1[C@@H]2CC[C@H]1CC(OC(c1ccccc1)c1ccccc1)C2` (stereo not given in full), the Potency was “inactive”. For `CN=C1C=CC(=C(c2ccc(N(C)C)cc2)c2ccc(N(C)C)cc2)C=C1`, the Potency was inconclusive: 9.52 µM [cytotoxic].
